Assay results taken from PubChem BioAssay AID624417 (National Center for Advancing Translational Sciences (NCATS), 2012).
In all, about 410,000 compounds went through this assay and about 6,400 (1.6%) were called active. Inconclusive means that the source gave no clear call. Such entries were picked first, then a sample of the others. Calls follow the shape of the dose curve; as a rule, active = well fitted inhibition curve with a large enough effect; inconclusive = small, poorly fitted or top-dose-only effect; inactive = no such curve, though single readings can be large or run the other way. Potencies beside an inconclusive call are fits to weak or partial responses and may not hold up.

Each molecule was assayed against Glucagon-like peptide 1 receptor (Homo sapiens) (UniProt P43220) (assay: qHTS of GLP-1 Receptor Inverse Agonists (Inhibition Mode)). Conditions: HEK293 GLP-1R CRE-luciferase, luminescence, 24 h, GLP-1R form is constitutively active; activity change, negative = inhibition: at 38.3 µM (top of the series) unless noted.
Sequence of UniProt P43220 (P43220 whole entry, looked up): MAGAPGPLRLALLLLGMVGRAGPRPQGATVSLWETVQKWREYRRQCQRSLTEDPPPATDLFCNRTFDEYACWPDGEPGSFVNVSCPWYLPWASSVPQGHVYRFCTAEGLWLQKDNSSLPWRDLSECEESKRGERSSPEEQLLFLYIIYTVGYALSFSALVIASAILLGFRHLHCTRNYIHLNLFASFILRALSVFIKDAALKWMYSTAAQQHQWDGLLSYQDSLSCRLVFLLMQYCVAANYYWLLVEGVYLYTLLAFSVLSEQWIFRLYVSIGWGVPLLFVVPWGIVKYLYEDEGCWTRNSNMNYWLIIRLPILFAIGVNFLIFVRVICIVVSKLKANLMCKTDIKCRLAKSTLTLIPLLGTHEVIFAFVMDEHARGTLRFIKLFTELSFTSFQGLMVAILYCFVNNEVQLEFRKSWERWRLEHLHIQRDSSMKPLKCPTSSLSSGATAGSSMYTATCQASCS
Outline: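 HEK293 cells stably co-expressing a cAMP-responsive luciferase reporter and constitutively active GLP-1R were seeded, incubated 12 h, then exposed to compounds for 24 h at 37 C. Luminescence was read 12 min after detection reagent; inverse agonists lower signal.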
% is scaled to controls: 0 for no effect and ±100 for the full control effect; potency is read from the fitted curve at half-maximal effect; tags tell the direction and shape of the fitted curve.
Also: nearly all actives have a fitted effect of over 55% in size.

Activity change, negative = inhibition, inconclusive:
Cc1c(N2CCCC2)cc2c(c1N)C(C)(C)CC2(C)C -88.6% [inhibitor]

Activity change, negative = inhibition, inactive:
Cc1cc(N2C(=O)C(O)=C(C(=O)c3ccc(C)o3)C2c2cccc(Cl)c2)no1 (centres undefined) -7.92%
Cc1ccc(/C=N/NC(=O)c2nn(C)cc2Cl)cc1 -0.834%
CC(C)OCCCn1c(=N)c(C(N)=S)cc2c(=O)n3ccccc3nc21 80.5%
Cc1ccc(Cl)cc1N1CCN(C(=O)c2cn(C)c3ccc(S(=O)(=O)N4CCCC4)cc3c2=O)CC1 -0.296%
O=C(CSc1nnc(-c2cccs2)n1CC1CCCO1)N1CCCC1 (centres undefined) 16.9%
COc1cc(NC(=O)c2sc3nc(C)nc(N4CCOCC4)c3c2C)cc(OC)c1OC 66.6%
O=C(CSc1nccn1C1CCCC1)Nc1ccccc1 18.5%
CCN(CC)C(=O)C1CCN(C(=O)c2cnn(-c3ccccc3)c2-n2cccc2)CC1 -1.44%
CCOC(=O)c1cnc2c(Cl)cccc2c1NCCCN1CCOCC1 16%
CCOc1ccc(CNC(=O)c2cnc(SC)nc2C)cc1 11%
CC1CCCN(C(=O)c2ccc(NS(=O)(=O)c3ccc4[nH]c(=O)[nH]c4c3)cc2)C1 (centres undefined) 2.88%
O=C(NC1CCCC1)c1ccc(CS(=O)(=O)Cc2ccccc2Cl)o1 -21.9%
O=C(O)c1cnn(-c2nc(-c3ccc(Cl)cc3)cs2)c1C(F)(F)F -7.21%
CCOc1ccccc1CNC(=O)c1ccc(Cn2c(=O)c3cccn3c3cccnc32)cc1 7.76%
CC(=O)Nc1nonc1-c1nnc(SCc2cccc(Br)c2)n1C 15.9%
CN1C(=O)/C(=C/c2ccc(O)c([N+](=O)[O-])c2)NC1=S 9.52%

Potency, active:
O=C1N[C@@H](Cc2ccccc2)C(=O)N2[C@@H]3N(S(=O)(=O)c4ccccc4)c4ccccc4[C@]3(Br)C[C@@H]12 10 µM

Potency, inconclusive:
COC(=O)c1ccc(/C=N/OCC(=O)NC2CCCC(C)C2C)cc1 (centres undefined) 28.2 µM [inhibitor, single point]
CNc1nc(C)cc(C)c1S(=O)(=O)c1ccc(Cl)cc1 10 µM [inhibitor, partial curve, poor fit]
OC(c1cccc(Cl)c1)c1nc(-c2ccc(Cl)cc2)cs1 (centres undefined) 20 µM [inhibitor, single point]
CCN1CCN(c2ncc3c(n2)CCN(Cc2ccc(C)s2)C3)CC1 14.1 µM [inhibitor, partial curve, poor fit]
Cc1cccc(CCNC(=O)c2nc(-c3ccc(Cl)cc3)n3c2CCCCC3)c1 10 µM [inhibitor, partial curve, poor fit]
CC(C)C[C@@H](COCc1cccc(Cl)c1)N1CCN(C(=O)c2cccc(C(F)(F)F)c2)CCC1=O 8.91 µM [inhibitor, partial curve, poor fit]
Cc1ccc(NS(=O)(=O)c2cccc(C(=O)N(C)Cc3cccs3)c2)cc1 28.2 µM [inhibitor, single point]
Cc1cccc(NC(=O)c2nc[nH]c2C(=O)N[C@@H](Cc2ccccc2)C(=O)OCc2ccccc2)c1 12.6 µM [inhibitor, single point]
CCOc1ccc(N(CC(=O)Nc2cc(Cl)ccc2C)S(C)(=O)=O)cc1 7.08 µM [inhibitor, partial curve, poor fit]
CCc1sc(N2C(=O)C3C4CCC(C4=C(C)C)C3C2=O)nc1-c1ccccc1 (centres undefined) 3.98 µM [inhibitor, full curve]
c1ccc2c(OCCCCN3CCOCC3)cccc2c1 20 µM [inhibitor, single point]
COc1ccc(C)c2sc(N(CCCN(C)C)C(=O)c3ccc(S(=O)(=O)N(C)C)cc3)nc12 10 µM [inhibitor, partial curve, poor fit]
CC(CCc1ccc(O)cc1)NC(c1ccccc1)c1ccc(Cl)cc1 (centres undefined) 28.2 µM [inhibitor, single point]
COc1ccc(-c2nnc(SCc3nnc(-c4ccc(Cl)cc4)o3)n2-c2ccccc2)cc1 22.4 µM [inhibitor, single point]
CC1=C(C(=O)OC2CCCC2)C(c2cccc(Cl)c2Cl)CC(=O)N1 (centres undefined) 11.2 µM [inhibitor, partial curve]
COc1cccc2cc(/C(=N/O)c3ccccc3)oc12 28.2 µM [inhibitor, single point]
O=c1cc(CN(Cc2ccccc2)Cc2ccccc2)c2ccccc2o1 10 µM [inhibitor, partial curve, poor fit]
COc1ccc2cc3cc(C(=O)NC4CC4)sc3nc2c1 3.55 µM [inhibitor, partial curve]
COc1ccc(N2CCN(C(=O)c3ccc(N(C)S(=O)(=O)c4ccc(C)cc4)cc3)CC2)cc1 25.1 µM [inhibitor, single point]
COc1ccc(CNC(=O)CCS(=O)(=O)c2ccc3c(c2)CC(C)N3C(=O)C2CC2)cc1 (centres undefined) 3.98 µM [inhibitor, partial curve]
O=C(c1ccccc1)c1ccc(N2CCN(C(=O)c3ccc(F)cc3F)CC2)c(F)c1 10 µM [inhibitor, partial curve, poor fit]
CCc1ccc(CNC(=O)c2ccc(CS(=O)(=O)Cc3ccccc3C)o2)cc1 17.8 µM [inhibitor, partial curve, poor fit]
Cc1ccc(CN2CCSc3sccc3C2=O)cc1 31.6 µM [inhibitor, single point]
Cc1cc(C)n(C(=O)C(C(=O)c2ccccc2)C(C)C)n1 (centres undefined) 31.6 µM [inhibitor, single point]
Cc1cc(C(=O)CSc2nnc(-c3cccs3)n2Cc2ccccc2)c(C)n1C 7.94 µM [inhibitor, partial curve, poor fit]
COc1ccccc1CC(=O)Nc1sc2c(c1C(N)=O)CCCC2 28.2 µM [inhibitor, single point]
O=C(Nc1ccc(Cl)cc1C(F)(F)F)c1cc(S(=O)(=O)NCc2ccccc2)ccc1F 20 µM [inhibitor, single point]
CC(=O)N(CCC(c1ccco1)C(C)C)Cc1ccc(Cl)cc1 (centres undefined) 11.2 µM [inhibitor, single point]
COc1cc(-c2cc3nc(NCc4cccc(Cl)c4)ccn3n2)cc(OC)c1OC 10 µM [inhibitor, partial curve, poor fit]
CN(C)c1ccc2nc3ccc(=O)cc-3sc2c1 12.6 µM [inhibitor, single point]
O=C1NC(=O)/C(=C\c2ccc(OCc3cccc(C(=O)O)c3)c(Cl)c2)N1 28.2 µM [inhibitor, single point]
c1ccc(Cc2ccc(OCCn3cncn3)cc2)cc1 0.891 µM [inhibitor, full curve, poor fit]
Cc1ccc(OCCCC(=O)N2CCN(S(=O)(=O)c3cccc(F)c3)CC2)cc1 11.2 µM [inhibitor, partial curve, poor fit]
Cc1ccc(NC(=O)C2CCN(S(=O)(=O)c3c(C)noc3C)CC2)cc1C 28.2 µM [inhibitor, single point]
CCOC(=O)CN(C(=O)CSc1nnc(Cc2ccccc2)n1-c1ccc(C)cc1)c1ccccc1 22.4 µM [inhibitor, partial curve, poor fit]
CC(C)c1cccc(-c2csc(C(C)(O)c3ccccc3)n2)c1 (centres undefined) 14.1 µM [inhibitor, single point]
CCOC(=O)c1c(NC(=O)CN2C(=O)NC(C)(c3ccccc3)C2=O)sc(C)c1C (centres undefined) 3.16 µM [inhibitor, partial curve, poor fit]
COc1cccc(CC2(CO)CCCN(Cc3nc(-c4cccs4)oc3C)C2)c1 (centres undefined) 11.2 µM [inhibitor, partial curve, poor fit]
COc1ccc(Cl)cc1NC(=S)N1CCCCCC1 7.94 µM [inhibitor, partial curve, poor fit]
Cc1cccc(C)c1NC(=O)c1c(O)c2ccccc2[nH]c1=O 2.51 µM [inhibitor, full curve]
O=C(N/N=C/c1cc([N+](=O)[O-])ccc1O)C(O)(c1ccccc1)c1ccccc1 6.31 µM [inhibitor, partial curve, poor fit]
COc1ccc(S(=O)(=O)Nc2cc(SCC(=O)O)c(O)c3ccccc23)cc1 10 µM [inhibitor, single point]
COC(=O)[C@]12CCCCC=C1N(CCC1=CCCCC1)C(=O)[C@H](CC(=O)N1CCN(C(=O)c3ccco3)CC1)C2 12.6 µM [inhibitor, single point]
C(#Cc1ccccc1)C[N+]1(CC#Cc2ccccc2)CCCCC1 7.94 µM [inhibitor, partial curve, poor fit]
COc1cc2c(cc1OC)CN(c1nc(CN3CCCC3)nc3sc(C)c(C)c13)CC2 10 µM [inhibitor, partial curve, poor fit]
O=C1C2C3CCC(C3NCc3ccccc3)C2C(=O)N1Cc1ccccc1 (centres undefined) 14.1 µM [inhibitor, partial curve, poor fit]
